Substitutions are numbered along the chain they refer to; changes in the protein carry UniProt numbers. The list shows a part of the results.
T1: RBFOX1 RRM (Homo sapiens, UniProt Q9NWB1 109-208)
T1 sequence: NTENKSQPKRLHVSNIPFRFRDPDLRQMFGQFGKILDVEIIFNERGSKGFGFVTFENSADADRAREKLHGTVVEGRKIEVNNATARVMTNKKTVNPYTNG

B1: AACCGAG (DNA:RNA)
RNA: GGGAGACCGGAAUUCAGAUUGUCCAACCGAGUUAAAUCCCGUCGUAGCCACCA
DNA 1: CAATCTGAATTCCGGTCTCCC
DNA 2: TGGTGGCTACGACGGGATT
B2: CCGGCAA (DNA:RNA)
RNA: B1 RNA with A25C, A26C, C27G, C28G, G29C, G31A
DNA 1: CAATCTGAATTCCGGTCTCCC
DNA 2: TGGTGGCTACGACGGGATT
B3: UUCGCCG (DNA:RNA)
RNA: B1 RNA with A25U, A26U, C28G, G29C, A30C
DNA 1: CAATCTGAATTCCGGTCTCCC
DNA 2: TGGTGGCTACGACGGGATT
B4: GUGCUUA (DNA:RNA)
RNA: B1 RNA with A25G, A26U, C27G, G29U, A30U, G31A
DNA 1: CAATCTGAATTCCGGTCTCCC
DNA 2: TGGTGGCTACGACGGGATT
B5: AAGGUUU (DNA:RNA)
RNA: B1 RNA with C27G, C28G, G29U, A30U, G31U
DNA 1: CAATCTGAATTCCGGTCTCCC
DNA 2: TGGTGGCTACGACGGGATT
B6: GUUACUC (DNA:RNA)
RNA: GGGAGACCGGAAUUCAGAUUGUCCGUUACUCUUAAAUCCCGUCGUAGCCACCA
DNA 1: CAATCTGAATTCCGGTCTCCC
DNA 2: TGGTGGCTACGACGGGATT
B7: AUUCAGG (DNA:RNA)
RNA: B1 RNA with A26U, C27U, G29A, A30G
DNA 1: CAATCTGAATTCCGGTCTCCC
DNA 2: TGGTGGCTACGACGGGATT
B8: AGUACAG (DNA:RNA)
RNA: B1 RNA with A26G, C27U, C28A, G29C
DNA 1: CAATCTGAATTCCGGTCTCCC
DNA 2: TGGTGGCTACGACGGGATT
B9: GCACGUU (DNA:RNA)
RNA: B1 RNA with A25G, A26C, C27A, A30U, G31U
DNA 1: CAATCTGAATTCCGGTCTCCC
DNA 2: TGGTGGCTACGACGGGATT
B10: CAUGACU (DNA:RNA)
RNA: B1 RNA with A25C, C27U, C28G, G29A, A30C, G31U
DNA 1: CAATCTGAATTCCGGTCTCCC
DNA 2: TGGTGGCTACGACGGGATT
B11: CAUGCCG (DNA:RNA)
RNA: B1 RNA with A25C, C27U, C28G, G29C, A30C
DNA 1: CAATCTGAATTCCGGTCTCCC
DNA 2: TGGTGGCTACGACGGGATT
B12: GAAUGCU (DNA:RNA)
RNA: B1 RNA with A25G, C27A, C28U, A30C, G31U
DNA 1: CAATCTGAATTCCGGTCTCCC
DNA 2: TGGTGGCTACGACGGGATT
B13: ACGUGUC (DNA:RNA)
RNA: B1 RNA with A26C, C27G, C28U, A30U, G31C
DNA 1: CAATCTGAATTCCGGTCTCCC
DNA 2: TGGTGGCTACGACGGGATT
B14: AAUUUCG (DNA:RNA)
RNA: B1 RNA with C27U, C28U, G29U, A30C
DNA 1: CAATCTGAATTCCGGTCTCCC
DNA 2: TGGTGGCTACGACGGGATT
B15: CCUCCGC (DNA:RNA)
RNA: B6 RNA with G25C, U26C, A28C, U30G
DNA 1: CAATCTGAATTCCGGTCTCCC
DNA 2: TGGTGGCTACGACGGGATT
B16: CACCGGU (DNA:RNA)
RNA: B1 RNA with A25C, A30G, G31U
DNA 1: CAATCTGAATTCCGGTCTCCC
DNA 2: TGGTGGCTACGACGGGATT
B17: CGAGACU (DNA:RNA)
RNA: GGGAGACCGGAAUUCAGAUUGUCCCGAGACUUUAAAUCCCGUCGUAGCCACCA
DNA 1: CAATCTGAATTCCGGTCTCCC
DNA 2: TGGTGGCTACGACGGGATT
B18: AAAGGUC (DNA:RNA)
RNA: B1 RNA with C27A, C28G, A30U, G31C
DNA 1: CAATCTGAATTCCGGTCTCCC
DNA 2: TGGTGGCTACGACGGGATT
B19: CAUUAGC (DNA:RNA)
RNA: B17 RNA with G26A, A27U, G28U, C30G, U31C
DNA 1: CAATCTGAATTCCGGTCTCCC
DNA 2: TGGTGGCTACGACGGGATT
B20: AGGGAUU (DNA:RNA)
RNA: B17 RNA with C25A, A27G, C30U
DNA 1: CAATCTGAATTCCGGTCTCCC
DNA 2: TGGTGGCTACGACGGGATT
B21: ACCUGCG (DNA:RNA)
RNA: B1 RNA with A26C, C28U, A30C
DNA 1: CAATCTGAATTCCGGTCTCCC
DNA 2: TGGTGGCTACGACGGGATT
B22: UCAUAUU (DNA:RNA)
RNA: B17 RNA with C25U, G26C, G28U, C30U
DNA 1: CAATCTGAATTCCGGTCTCCC
DNA 2: TGGTGGCTACGACGGGATT
B23: AGUCGCA (DNA:RNA)
RNA: B1 RNA with A26G, C27U, A30C, G31A
DNA 1: CAATCTGAATTCCGGTCTCCC
DNA 2: TGGTGGCTACGACGGGATT
B24: UGUUUCA (DNA:RNA)
RNA: B17 RNA with C25U, A27U, G28U, A29U, U31A
DNA 1: CAATCTGAATTCCGGTCTCCC
DNA 2: TGGTGGCTACGACGGGATT
B25: GAACAUU (DNA:RNA)
RNA: B17 RNA with C25G, G26A, G28C, C30U
DNA 1: CAATCTGAATTCCGGTCTCCC
DNA 2: TGGTGGCTACGACGGGATT
B26: UACCCGG (DNA:RNA)
RNA: B1 RNA with A25U, G29C, A30G
DNA 1: CAATCTGAATTCCGGTCTCCC
DNA 2: TGGTGGCTACGACGGGATT
B27: UUGGCAC (DNA:RNA)
RNA: B6 RNA with G25U, U27G, A28G, U30A
DNA 1: CAATCTGAATTCCGGTCTCCC
DNA 2: TGGTGGCTACGACGGGATT
B28: GUCACAU (DNA:RNA)
RNA: B6 RNA with U27C, U30A, C31U
DNA 1: CAATCTGAATTCCGGTCTCCC
DNA 2: TGGTGGCTACGACGGGATT
B29: AACAGGG (DNA:RNA)
RNA: B1 RNA with C28A, A30G
DNA 1: CAATCTGAATTCCGGTCTCCC
DNA 2: TGGTGGCTACGACGGGATT
B30: AAAUCAA (DNA:RNA)
RNA: B1 RNA with C27A, C28U, G29C, G31A
DNA 1: CAATCTGAATTCCGGTCTCCC
DNA 2: TGGTGGCTACGACGGGATT
B31: GGGGUCG (DNA:RNA)
RNA: B17 RNA with C25G, A27G, A29U, U31G
DNA 1: CAATCTGAATTCCGGTCTCCC
DNA 2: TGGTGGCTACGACGGGATT

What follows are binders tested against T1, RBFOX1 RRM (assay: EMSA; HiTS-Eq, 1 nM pool, 10 min; buffer printed only for the single-RNA assays: 10 mM Tris pH 7.5, 150 mM NaCl, 3.4 mM EDTA, 0.001% NP-40, 30 C). Conditions: tags: His6 N-terminal (pET28a); label: 5' 32P.
Procedure, shortened: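 Purified wild-type or mutant RbFox RRM at increasing concentrations was equilibrated with 1 nM of 5′-radiolabelled RNA carrying 7 randomized nucleotides for 10 min in 50 µL. Unbound RNA was separated by 8% native PAGE and sequenced. Relative association constants came from read-count changes of each RNA species compared with the control reaction, normalised to the cognate motif.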
For B1, the binding signal was 0.00329 KA relative to UGCAUGU.
In the case of B2, the binding signal is reported as 0.0131 KA relative to UGCAUGU.
With B3 the binding signal was 0.0111 KA relative to UGCAUGU.
With B4 the binding signal was 0.0121 KA relative to UGCAUGU.
For B5, the binding signal was 0.00836 KA relative to UGCAUGU.
B6 was tested, and the binding signal was 0.0119 KA relative to UGCAUGU.
B7 was tested, and the binding signal was 0.00886 KA relative to UGCAUGU.
With B8 the binding signal was 0.00621 KA relative to UGCAUGU.
With B9 the binding signal was 0.043 KA relative to UGCAUGU.
For B10, the binding signal was 0.00478 KA relative to UGCAUGU.
B11 was tested, and the binding signal was 0.00485 KA relative to UGCAUGU.
B12 was tested, and the binding signal was 0.0201 KA relative to UGCAUGU.
In the case of B13, the binding signal is reported as 0.00964 KA relative to UGCAUGU.
For B14, the binding signal was 0.00926 KA relative to UGCAUGU.
For B15, the binding signal was 0.00303 KA relative to UGCAUGU.
For B16, the binding signal was 0.0068 KA relative to UGCAUGU.
For B17, the binding signal was 0.00854 KA relative to UGCAUGU.
In the case of B18, the binding signal is reported as 0.00765 KA relative to UGCAUGU.
B19 was tested, and the binding signal was 0.00445 KA relative to UGCAUGU.
For B20, the binding signal was 0.0196 KA relative to UGCAUGU.
With B21 the binding signal was 0.00833 KA relative to UGCAUGU.
B22 was tested, and the binding signal was 0.00186 KA relative to UGCAUGU.
For B23, the binding signal was 0.0122 KA relative to UGCAUGU.
B24 was tested, and the binding signal was 0.0152 KA relative to UGCAUGU.
For B25, the binding signal was 0.00246 KA relative to UGCAUGU.
B26 was tested, and the binding signal was 0.00763 KA relative to UGCAUGU.
B27 was tested, and the binding signal was 0.0191 KA relative to UGCAUGU.
With B28 the binding signal was 0.00506 KA relative to UGCAUGU.
B29 was tested, and the binding signal was 0.00646 KA relative to UGCAUGU.
B30 was tested, and the binding signal was 0.000997 KA relative to UGCAUGU.
B31 was tested, and the binding signal was 0.0492 KA relative to UGCAUGU.

Source: PMC9911399, “Two distinct binding modes provide the RNA-binding protein RbFox with extraordinary sequence specificity”
